Assay results from publication PMC9911399, “Two distinct binding modes provide the RNA-binding protein RbFox with extraordinary sequence specificity”.
Positions count from the first letter of the chain named. This is one part of the list.

T1: RBFOX1 RRM (Homo sapiens, UniProt Q9NWB1 109-208)
T1 sequence: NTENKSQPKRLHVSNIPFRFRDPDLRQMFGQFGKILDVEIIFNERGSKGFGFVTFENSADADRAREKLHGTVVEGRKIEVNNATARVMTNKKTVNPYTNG

B1: UGUGCUC (DNA:RNA)
RNA: GGGAGACCGGAAUUCAGAUUGUCCUGUGCUCUUAAAUCCCGUCGUAGCCACCA
DNA 1: CAATCTGAATTCCGGTCTCCC
DNA 2: TGGTGGCTACGACGGGATT
B2: GAUAGCU (DNA:RNA)
RNA: B1 RNA with U25G, G26A, G28A, C29G, U30C, C31U
DNA 1: CAATCTGAATTCCGGTCTCCC
DNA 2: TGGTGGCTACGACGGGATT
B3: AAAGCAU (DNA:RNA)
RNA: B1 RNA with U25A, G26A, U27A, U30A, C31U
DNA 1: CAATCTGAATTCCGGTCTCCC
DNA 2: TGGTGGCTACGACGGGATT
B4: ACAUGCG (DNA:RNA)
RNA: GGGAGACCGGAAUUCAGAUUGUCCACAUGCGUUAAAUCCCGUCGUAGCCACCA
DNA 1: CAATCTGAATTCCGGTCTCCC
DNA 2: TGGTGGCTACGACGGGATT
B5: GGUGGGC (DNA:RNA)
RNA: B1 RNA with U25G, C29G, U30G
DNA 1: CAATCTGAATTCCGGTCTCCC
DNA 2: TGGTGGCTACGACGGGATT
B6: UAGGUGC (DNA:RNA)
RNA: B1 RNA with G26A, U27G, C29U, U30G
DNA 1: CAATCTGAATTCCGGTCTCCC
DNA 2: TGGTGGCTACGACGGGATT
B7: AUUUACG (DNA:RNA)
RNA: B4 RNA with C26U, A27U, G29A
DNA 1: CAATCTGAATTCCGGTCTCCC
DNA 2: TGGTGGCTACGACGGGATT
B8: UCAAUUU (DNA:RNA)
RNA: B4 RNA with A25U, U28A, G29U, C30U, G31U
DNA 1: CAATCTGAATTCCGGTCTCCC
DNA 2: TGGTGGCTACGACGGGATT
B9: GACAGAC (DNA:RNA)
RNA: B4 RNA with A25G, C26A, A27C, U28A, C30A, G31C
DNA 1: CAATCTGAATTCCGGTCTCCC
DNA 2: TGGTGGCTACGACGGGATT
B10: ACGUGAC (DNA:RNA)
RNA: B4 RNA with A27G, C30A, G31C
DNA 1: CAATCTGAATTCCGGTCTCCC
DNA 2: TGGTGGCTACGACGGGATT
B11: GCGUCGU (DNA:RNA)
RNA: B4 RNA with A25G, A27G, G29C, C30G, G31U
DNA 1: CAATCTGAATTCCGGTCTCCC
DNA 2: TGGTGGCTACGACGGGATT
B12: CCAAAUU (DNA:RNA)
RNA: B4 RNA with A25C, U28A, G29A, C30U, G31U
DNA 1: CAATCTGAATTCCGGTCTCCC
DNA 2: TGGTGGCTACGACGGGATT
B13: CCGGUUU (DNA:RNA)
RNA: B1 RNA with U25C, G26C, U27G, C29U, C31U
DNA 1: CAATCTGAATTCCGGTCTCCC
DNA 2: TGGTGGCTACGACGGGATT
B14: AGUUAGG (DNA:RNA)
RNA: B4 RNA with C26G, A27U, G29A, C30G
DNA 1: CAATCTGAATTCCGGTCTCCC
DNA 2: TGGTGGCTACGACGGGATT
B15: CGGUGUA (DNA:RNA)
RNA: B4 RNA with A25C, C26G, A27G, C30U, G31A
DNA 1: CAATCTGAATTCCGGTCTCCC
DNA 2: TGGTGGCTACGACGGGATT
B16: UUUAGAA (DNA:RNA)
RNA: B1 RNA with G26U, G28A, C29G, U30A, C31A
DNA 1: CAATCTGAATTCCGGTCTCCC
DNA 2: TGGTGGCTACGACGGGATT
B17: CCUAUUA (DNA:RNA)
RNA: B1 RNA with U25C, G26C, G28A, C29U, C31A
DNA 1: CAATCTGAATTCCGGTCTCCC
DNA 2: TGGTGGCTACGACGGGATT
B18: ACGGACC (DNA:RNA)
RNA: B4 RNA with A27G, U28G, G29A, G31C
DNA 1: CAATCTGAATTCCGGTCTCCC
DNA 2: TGGTGGCTACGACGGGATT
B19: AUUAUCA (DNA:RNA)
RNA: B4 RNA with C26U, A27U, U28A, G29U, G31A
DNA 1: CAATCTGAATTCCGGTCTCCC
DNA 2: TGGTGGCTACGACGGGATT
B20: CAAGCGA (DNA:RNA)
RNA: B1 RNA with U25C, G26A, U27A, U30G, C31A
DNA 1: CAATCTGAATTCCGGTCTCCC
DNA 2: TGGTGGCTACGACGGGATT
B21: UUCUUUU (DNA:RNA)
RNA: B1 RNA with G26U, U27C, G28U, C29U, C31U
DNA 1: CAATCTGAATTCCGGTCTCCC
DNA 2: TGGTGGCTACGACGGGATT
B22: CUCGUAU (DNA:RNA)
RNA: B1 RNA with U25C, G26U, U27C, C29U, U30A, C31U
DNA 1: CAATCTGAATTCCGGTCTCCC
DNA 2: TGGTGGCTACGACGGGATT
B23: GCCUAAU (DNA:RNA)
RNA: B4 RNA with A25G, A27C, G29A, C30A, G31U
DNA 1: CAATCTGAATTCCGGTCTCCC
DNA 2: TGGTGGCTACGACGGGATT
B24: CGACUUU (DNA:RNA)
RNA: B1 RNA with U25C, U27A, G28C, C29U, C31U
DNA 1: CAATCTGAATTCCGGTCTCCC
DNA 2: TGGTGGCTACGACGGGATT
B25: ACUGGAA (DNA:RNA)
RNA: B4 RNA with A27U, U28G, C30A, G31A
DNA 1: CAATCTGAATTCCGGTCTCCC
DNA 2: TGGTGGCTACGACGGGATT
B26: CCUCGGC (DNA:RNA)
RNA: B4 RNA with A25C, A27U, U28C, C30G, G31C
DNA 1: CAATCTGAATTCCGGTCTCCC
DNA 2: TGGTGGCTACGACGGGATT
B27: CAAUUAG (DNA:RNA)
RNA: B4 RNA with A25C, C26A, G29U, C30A
DNA 1: CAATCTGAATTCCGGTCTCCC
DNA 2: TGGTGGCTACGACGGGATT
B28: AUCUCUA (DNA:RNA)
RNA: B4 RNA with C26U, A27C, G29C, C30U, G31A
DNA 1: CAATCTGAATTCCGGTCTCCC
DNA 2: TGGTGGCTACGACGGGATT
B29: CAUCUUU (DNA:RNA)
RNA: B1 RNA with U25C, G26A, G28C, C29U, C31U
DNA 1: CAATCTGAATTCCGGTCTCCC
DNA 2: TGGTGGCTACGACGGGATT
B30: CUAGGAA (DNA:RNA)
RNA: B4 RNA with A25C, C26U, U28G, C30A, G31A
DNA 1: CAATCTGAATTCCGGTCTCCC
DNA 2: TGGTGGCTACGACGGGATT
B31: GAUUUAU (DNA:RNA)
RNA: B4 RNA with A25G, C26A, A27U, G29U, C30A, G31U
DNA 1: CAATCTGAATTCCGGTCTCCC
DNA 2: TGGTGGCTACGACGGGATT

target: T1, RBFOX1 RRM; experiment: EMSA; HiTS-Eq, 1 nM pool, 10 min; buffer printed only for the single-RNA assays: 10 mM Tris pH 7.5, 150 mM NaCl, 3.4 mM EDTA, 0.001% NP-40, 30 C; settings: tags: His6 N-terminal (pET28a); label: 5' 32P
Method in brief: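 Relative association constants, normalised to the cognate motif, were derived by comparing read counts of each RNA species with those of the control reaction. The RNA sequenced was the free fraction, separated by 8% native PAGE after a 10 min equilibration in 50 µL of 1 nM 5′-radiolabelled RNA (7 randomized nucleotides) with increasing concentrations of purified wild-type or mutant RbFox RRM.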

Binder | binding signal
B1 | 0.0183 KA relative to UGCAUGU
B2 | 0.0111 KA relative to UGCAUGU
B3 | 0.00752 KA relative to UGCAUGU
B4 | 0.00768 KA relative to UGCAUGU
B5 | 0.00822 KA relative to UGCAUGU
B6 | 0.0228 KA relative to UGCAUGU
B7 | 0.00681 KA relative to UGCAUGU
B8 | 0.00203 KA relative to UGCAUGU
B9 | 0.0107 KA relative to UGCAUGU
B10 | 0.00469 KA relative to UGCAUGU
B11 | 0.0171 KA relative to UGCAUGU
B12 | 0.00211 KA relative to UGCAUGU
B13 | 0.0121 KA relative to UGCAUGU
B14 | 0.0129 KA relative to UGCAUGU
B15 | 0.00859 KA relative to UGCAUGU
B16 | 0.0115 KA relative to UGCAUGU

Binder | binding signal
B17 | 0.00225 KA relative to UGCAUGU
B18 | 0.00246 KA relative to UGCAUGU
B19 | 0.00311 KA relative to UGCAUGU
B20 | 0.00874 KA relative to UGCAUGU
B21 | 0.0132 KA relative to UGCAUGU
B22 | 0.00726 KA relative to UGCAUGU
B23 | 0.0054 KA relative to UGCAUGU
B24 | 0.00962 KA relative to UGCAUGU
B25 | 0.00689 KA relative to UGCAUGU
B26 | 0.00992 KA relative to UGCAUGU
B27 | 0.00613 KA relative to UGCAUGU
B28 | 0.00211 KA relative to UGCAUGU
B29 | 0.00311 KA relative to UGCAUGU
B30 | 0.00837 KA relative to UGCAUGU
B31 | 0.00769 KA relative to UGCAUGU
